The other results are listed elsewhere or left out. At the low end of the ranking the order means little.

The assay deals with T1, GST-Rok (full length) (UniProt O34857).
T1 sequence: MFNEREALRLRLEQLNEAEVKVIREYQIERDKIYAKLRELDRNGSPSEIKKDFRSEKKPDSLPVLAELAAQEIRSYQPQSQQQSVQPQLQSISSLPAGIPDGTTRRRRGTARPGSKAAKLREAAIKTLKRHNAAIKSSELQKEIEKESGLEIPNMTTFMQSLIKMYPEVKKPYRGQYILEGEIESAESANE
The experiment in a line: protein binding microarray.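 Note: rank score from −0.5 (least bound) to 0.5 (best bound).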 Particulars: Rok is a gene silencer of Bacillus subtilis; high values mean tight binding; most listed sequences are background and not binding sites; double strand, one strand shown.
Consider CAACGTTC, for which the binding signal was -0.0911 E-score.

CTTTCGGA: the binding signal is -0.0359 E-score. Under CCCTTAAA stands -0.0853 E-score; under CTGTGAAC, -0.0504 E-score; under CGCGTCTC, -0.118 E-score. The figure for AATCTCCC is -0.02 E-score. On to CCTTGTCC, for which the binding signal is -0.322 E-score. Sequence CATAGGAG returned a binding signal of -0.131 E-score. Under ATTGACGA stands -0.0185 E-score; under CACGATAC, -0.0758 E-score; under ACGCCTCT, -0.267 E-score. As for AAAGCTGG, the binding signal is 0.0115 E-score. Sequence CACCTTCA displayed a binding signal of -0.186 E-score.

In the case of CGCCCGGA, the binding signal was -0.292 E-score. AAAATTTC showed a binding signal of 0.0626 E-score. In turn, ATACAAGA returned a binding signal of 0.11 E-score. ACGAAGCA yielded a binding signal of -0.132 E-score.

CCACGGAG gave a binding signal of -0.187 E-score. Regarding TATTAAGA, the binding signal is 0.218 E-score.

AACTCCAA registered a binding signal of -0.254 E-score. GGAGAACC yielded a binding signal of -0.0812 E-score.

Regarding GACATCAC, the binding signal is -0.199 E-score. The figure for ACGGTACC is 0.125 E-score; for CTGACGCC it is -0.289 E-score; for CATCGGTC it is -0.11 E-score. ACTGGACC: the binding signal is -0.255 E-score.

Regarding CTCCTGTA, the binding signal was found to be 0.00506 E-score.

With CGCAGCGC, the binding signal was -0.187 E-score.

In turn, AAGTGTGA had a binding signal of 0.0397 E-score. Under AACGGCAT stands 0.00282 E-score; under ACCTGAGT, -0.0561 E-score; under AATAATGC, 0.352 E-score.

On to GGTTGGCA, for which the binding signal is -0.138 E-score. The figure for AACGAACC is 0.142 E-score; for ATGATCCA it is 0.0872 E-score; for GGAAATAA it is 0.115 E-score. Take CCGCAGGA: the binding signal is -0.33 E-score. With CACACTTC, the binding signal turned out to be 0.0377 E-score. For the sequence CGCAAGCG, the binding signal is -0.189 E-score. In the case of GTGTTGTA, the binding signal was 0.228 E-score. For the sequence ATTTCCAG, the binding signal turned out to be 0.232 E-score. For the sequence GGCACAAA, the binding signal is -0.0178 E-score.

As to CTCTGCCA, the binding signal is -0.272 E-score. The figure for ATTTGGAA is 0.171 E-score; for CACCGGCG it is -0.283 E-score; for ATTACCCC it is -0.0805 E-score.

ATCGGGAA: the binding signal was -0.0601 E-score. Turning to CAAATCAA, the binding signal is -0.071 E-score.

CTCACGTA registered a binding signal of -0.000346 E-score. With CATGCTGA, the binding signal was -0.132 E-score. ACACGAAT showed a binding signal of 0.0524 E-score.

TCGTTTAA gave a binding signal of 0.0139 E-score. Turning to AGACCAGC, the binding signal is -0.103 E-score. Turning to CAGCGAGG, the binding signal is -0.314 E-score. The figure for AACTAGCC is 0.272 E-score. The figure for GAATTTGA is 0.108 E-score. As for ACTAGTCT, the binding signal worked out at 0.248 E-score. The figure for AATCTGTC is 0.0375 E-score. Under CACTCAGG stands -0.198 E-score. Under ATGCAATC stands 0.226 E-score; under CAAATTTC, 0.0992 E-score; under AGGACTTC, -0.154 E-score. On to AACTGAGT, for which the binding signal came out at 0.0634 E-score. AGCCTACT registered a binding signal of 0.015 E-score. For the sequence ACACGCTA, the binding signal was 0.146 E-score. The figure for ACTCCCGA is 0.0476 E-score; for AAGTATTC it is 0.178 E-score.

On to ACGCCGAC, for which the binding signal is -0.196 E-score. The sequence ACGGATAA returned a binding signal of 0.00676 E-score. As to CGTCTATA, the binding signal came to 0.145 E-score. Sequence CCCTACAC had a binding signal of -0.13 E-score. In the case of AGATTGAC, the binding signal was determined as 0.0401 E-score.

Consider AAAAATGA, for which the binding signal is -0.0293 E-score. ATTGGGCG yielded a binding signal of -0.199 E-score. Sequence ATGATAGC yielded a binding signal of 0.179 E-score.

With CTGCTACC, the binding signal worked out at 0.0779 E-score.

Turning to CTAGGACC, the binding signal was -0.192 E-score. The figure for ACCATTGC is 0.171 E-score.

Regarding GCCGCATA, the binding signal was -0.186 E-score.

On to GGGCGCTA, for which the binding signal was -0.198 E-score. Turning to GGAACACC, the binding signal was -0.364 E-score.

Sequence AAGCCTGT showed a binding signal of -0.213 E-score. The sequence CCAGTCGC registered a binding signal of -0.0693 E-score. ATGGGTAA yielded a binding signal of 0.286 E-score. Turning to AGTAGCCG, the binding signal was 0.0329 E-score. ACAGTCGA had a binding signal of 0.0235 E-score. Take AAGCTAGA: the binding signal was found to be 0.253 E-score. In the case of AACTCGGC, the binding signal was determined as 0.205 E-score. The sequence ATTTTATA registered a binding signal of 0.41 E-score. For CAGGTGGG, the binding signal was -0.362 E-score. Under AATTGTGG stands -0.0645 E-score; under ACATAGAT, 0.346 E-score. The sequence AAGGTGCT displayed a binding signal of -0.112 E-score. As to ACGTCCAA, the binding signal is -0.182 E-score. In turn, AGACTCAC gave a binding signal of -0.19 E-score. The figure for ATGGGACG is -0.18 E-score; for ATTGTTAG it is 0.294 E-score; for TGGGAACA it is -0.069 E-score. For the sequence ATGAAAAT, the binding signal is -0.00181 E-score.

The sequence CAATCCGA yielded a binding signal of -0.0679 E-score. Under GGGTCCGA stands -0.271 E-score; under AAAATTTA, 0.293 E-score; under CACCTCGG, -0.0675 E-score. Sequence AAACCTAC had a binding signal of 0.27 E-score.

Take CTGCACGC: the binding signal was -0.119 E-score. For AATCTAAC, the binding signal was 0.189 E-score. CCGCAAGA displayed a binding signal of -0.177 E-score.

As for ATCATCAG, the binding signal turned out to be 0.0421 E-score.

Regarding ATGCTCTC, the binding signal is -0.109 E-score.

As for CCAGACGA, the binding signal is -0.0424 E-score. Turning to AAGCTGAT, the binding signal was determined as 0.0256 E-score. For TAGGTGGA, the binding signal is -0.136 E-score.

As to GTAGCCCA, the binding signal was -0.113 E-score. As to CTGTCCGA, the binding signal amounted to 0.025 E-score. Consider ATCGTTTG, for which the binding signal is -0.0128 E-score. CATAAGCC gave a binding signal of -0.107 E-score. The sequence ACGTGGAC came in with a binding signal of -0.0607 E-score. The figure for CAGGGTCG is -0.35 E-score; for CGTGTTAA it is -0.00492 E-score; for CGATCCAG it is 0.101 E-score. TGGGGACA showed a binding signal of -0.161 E-score. The figure for CGCGGGTC is -0.277 E-score.

In the case of AAGGGCAT, the binding signal was 0.0808 E-score.

The sequence TGACCTCA registered a binding signal of 0.0164 E-score. The figure for CACGAGTG is -0.173 E-score; for ACTAAGGC it is -0.0542 E-score. Under CATAAAAC stands 0.202 E-score; under CGATTCCG, -0.0412 E-score. In turn, ACCCCCAG returned a binding signal of -0.357 E-score. The figure for TAGATCCA is 0.167 E-score; for CAAGGTGC it is -0.39 E-score. Turning to AGTTTGTG, the binding signal was 0.23 E-score. As for ATCCGAGC, the binding signal was -0.188 E-score. AACGGGAT came in with a binding signal of 0.0521 E-score. ATATTTAG returned a binding signal of 0.287 E-score. Consider AAGTCCAG, for which the binding signal is -0.0463 E-score. The figure for AGGCGCTC is -0.32 E-score; for CATAAAAA it is 0.0981 E-score.

CCAACGAA yielded a binding signal of 0.0727 E-score. For the sequence AAGGGGGA, the binding signal is -0.175 E-score. The sequence GCCTAGAA displayed a binding signal of -0.0275 E-score. Consider ATTTCGAG, for which the binding signal was 0.194 E-score. On to AGGTGCGA, for which the binding signal is -0.0982 E-score. Under GACTTAGA stands -0.202 E-score; under CATTACAA, 0.251 E-score.

Sequence CTAAACAC had a binding signal of 0.0731 E-score.

GATTCGCC came in with a binding signal of -0.182 E-score. CACAATGC gave a binding signal of -0.0836 E-score.

The sequence ACAACGGG showed a binding signal of -0.154 E-score. AATGAAGT: the binding signal came to 0.08 E-score. CGTGTGGA returned a binding signal of -0.0919 E-score. As for CGACTCTC, the binding signal is -0.152 E-score.

ATTTCGCC: the binding signal is -0.0734 E-score.

In turn, GACCTTGA displayed a binding signal of -0.147 E-score.

In the case of TATGAGGA, the binding signal was 0.0118 E-score.

With AGAGTTAG, the binding signal came out at 0.068 E-score. For the sequence CCTCATAG, the binding signal was -0.104 E-score. ATGGGTCA displayed a binding signal of -0.0161 E-score.

Consider AGGGGACG, for which the binding signal was -0.337 E-score. On to ATTATAGC, for which the binding signal is 0.173 E-score. TACAGCCA gave a binding signal of -0.0232 E-score. For GTGTCAAC, the binding signal was -0.245 E-score. CGACATTA had a binding signal of 0.0381 E-score.

On to GTCCAAGA, for which the binding signal was 0.0111 E-score.

The sequence AAAGTCCA came in with a binding signal of -0.179 E-score. For the sequence AATCGTTG, the binding signal is -0.0397 E-score. For CCTGAAGG, the binding signal was -0.26 E-score. CCGTCGCC displayed a binding signal of -0.326 E-score.

As to CCTCGCAG, the binding signal is -0.227 E-score. Sequence CTCACAAC came in with a binding signal of 0.0239 E-score.

The sequence CAGATAGC gave a binding signal of 0.0485 E-score. For AATAGCTC, the binding signal was determined as 0.125 E-score.

(Values after publication PMC6212790.)
